In PMC7819943, “Rice protein-binding microarrays: a tool to detect cis-acting elements near promoter regions in rice”:
Some of the results follow.

These sequences were tested against T1, OsWOX13 (Oryza sativa, UniProt Q5QMM3 1-267) (assay: protein-binding microarray (RPBM); PBS, 2% BSA, 51.3 ng/ul salmon testes DNA, 50 uM zinc acetate, 200 nM TF, 25 C, 1 h; high values mean tight binding). Conditions: protein: recombinant; tags: N-terminal polyhistidine and DsRed monomer fusion (pET32a); label: CyDye5-dUTP incorporated in the synthesized complementary strand; 3' TTTTT single-stranded linker to array surface; dsDNA, one strand shown.
T1 sequence: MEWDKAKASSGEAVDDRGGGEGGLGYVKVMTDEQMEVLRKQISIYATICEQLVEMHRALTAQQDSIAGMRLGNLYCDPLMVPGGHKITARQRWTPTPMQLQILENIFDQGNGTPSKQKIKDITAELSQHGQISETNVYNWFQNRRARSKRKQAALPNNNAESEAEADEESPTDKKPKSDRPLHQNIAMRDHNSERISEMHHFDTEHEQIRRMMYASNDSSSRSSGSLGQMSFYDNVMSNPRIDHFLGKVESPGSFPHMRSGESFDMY
Outline: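 For the binding signal, per-feature fluorescence intensity was read in arbitrary units on an Axon 4000B scanner. Before scanning, a 2% BSA-blocked custom Agilent array made double-stranded with Cy5-dUTP was washed after 1 h at 25 °C with 200 nM protein and 50 µM zinc acetate. The proteins were Ni–NTA-purified transcription factors with N-terminal polyhistidine and DsRed fusions, expressed in E. coli BL21-CodonPlus.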
With “AATCCTTTGTCATTTACTTTAATTTACTGGTACAGTTCCTCGGAGTCACCTAGTGCAG” the binding signal was 5650 fluorescence intensity (a.u.). For “ATGCTAATTTATGCGTGTATGAATAGTAATATAACTAGCACGGAGTCACCTAGTGCAG”, the binding signal was 15000 fluorescence intensity (a.u.). With “GATAGATAATAGATAGATAAATGGACACATTTCAGGAAAACGGAGTCACCTAGTGCAG” the binding signal was 20400 fluorescence intensity (a.u.). “TATATTATTTGTCAATCTTATTGTCAACTTATTAATCATCCGGAGTCACCTAGTGCAG” was tested, and the binding signal was 7160 fluorescence intensity (a.u.). For “GAAAAGATGATTAGATGAATACAAATAGTATACGATAGCACGGAGTCACCTAGTGCAG”, the binding signal was 24200 fluorescence intensity (a.u.). In the case of “AACATTTCATATATACACTAATTGGGCCCACACCGAAACCCGGAGTCACCTAGTGCAG”, the binding signal was 5810 fluorescence intensity (a.u.). For “TTCATTAATTGATTATTACTAGTAGGGATGGTTGGTTCAACGGAGTCACCTAGTGCAG”, the binding signal was 30700 fluorescence intensity (a.u.). “AATTTGATTGTATAAACTGACGATTTTAGTTAATTACTATCGGAGTCACCTAGTGCAG” was tested, and the binding signal was 48700 fluorescence intensity (a.u.). “CATGCCAATTGATAGTAGAAGCAGTATTAGCTAGCTCTGGCGGAGTCACCTAGTGCAG” was tested, and the binding signal was 4660 fluorescence intensity (a.u.). “TTACTAAATTAGTAGATAACATTGTGTGCATATACTCCTACGGAGTCACCTAGTGCAG” was tested, and the binding signal was 17500 fluorescence intensity (a.u.). In the case of “ATGATGACAAACTTTATATCAAAATTGTAGCCCTCGACGCCGGAGTCACCTAGTGCAG”, the binding signal was 8150 fluorescence intensity (a.u.). “ATTTTATAAATTGAATATTTTACCTTCAATATCCATTGAGCGGAGTCACCTAGTGCAG” was tested, and the binding signal was 26100 fluorescence intensity (a.u.). For “GAAAATTGAAGTGGTGTTATAAAATTTGGGAACCGGATGCCGGAGTCACCTAGTGCAG”, the binding signal was 18100 fluorescence intensity (a.u.). With “GAAATAATCACCAATTGATCACCGTGTATGATTGATCGATCGGAGTCACCTAGTGCAG” the binding signal was 40500 fluorescence intensity (a.u.). With “ACATTAGTTTATATTTAATTGAACTAATTTCTTGTCATAGCGGAGTCACCTAGTGCAG” the binding signal was 12800 fluorescence intensity (a.u.). For “CGTGATGAACAGTATATGAAATTTTCCACACTTTGGCCTGCGGAGTCACCTAGTGCAG”, the binding signal was 11000 fluorescence intensity (a.u.). For “AATTTTAATTTATAATTTAGGTATCTCTCGAACTAATTTTCGGAGTCACCTAGTGCAG”, the binding signal was 13100 fluorescence intensity (a.u.). In the case of “CGAATTATGTCTATTAACTTAACATTGTGTGTTGGACCGGCGGAGTCACCTAGTGCAG”, the binding signal was 11500 fluorescence intensity (a.u.). In the case of “AAATAAATTAATATGTGATATAACACTTTACAATCATATACGGAGTCACCTAGTGCAG”, the binding signal was 12800 fluorescence intensity (a.u.). “TCTGATTGTAGTTTTATAGGGTCTACTTTTCAGTCTTAGACGGAGTCACCTAGTGCAG” was tested, and the binding signal was 33100 fluorescence intensity (a.u.). For “TTATAGTAACATAATAATTCAATCAGAAAGAACAAGTGGCCGGAGTCACCTAGTGCAG”, the binding signal was 4910 fluorescence intensity (a.u.). With “TAATTTACGTAATTATAATTTATTTTGTTATGAGTTATTTCGGAGTCACCTAGTGCAG” the binding signal was 16700 fluorescence intensity (a.u.). For “CAACCGTAATTGCTAGGTACCACCCTGAACACATGATAAGCGGAGTCACCTAGTGCAG”, the binding signal was 17200 fluorescence intensity (a.u.). For “CCCATAAATGATGATTGACATGTGGGGCCCCACCACTCTCCGGAGTCACCTAGTGCAG”, the binding signal was 20100 fluorescence intensity (a.u.). With “TCATCATCAATCATTTAAAGCCGTAAGGTTACGAATTTTCCGGAGTCACCTAGTGCAG” the binding signal was 11000 fluorescence intensity (a.u.). With “TAACATTGATTGTTATGTCACTTGTCTGTGGATCAACTCTCGGAGTCACCTAGTGCAG” the binding signal was 26800 fluorescence intensity (a.u.). In the case of “AGAGTACTAATTGTTCTATCAATCACTTTTCATTCAAATTCGGAGTCACCTAGTGCAG”, the binding signal was 14700 fluorescence intensity (a.u.). “CACTCATTGACAATTATGGTACTACTAGTATTCTGCAGCACGGAGTCACCTAGTGCAG” was tested, and the binding signal was 19100 fluorescence intensity (a.u.). “CCGTGATTAGAAGTAGTACTAACGTGACGTATATATATCCCGGAGTCACCTAGTGCAG” was tested, and the binding signal was 36900 fluorescence intensity (a.u.). With “CATAATTATTGGGCATTGTCGGGTACACGAAATGTCTCGACGGAGTCACCTAGTGCAG” the binding signal was 24100 fluorescence intensity (a.u.). In the case of “CCACTAATTACACTCCTTCCGGCTCACTTTATAAAGCCACCGGAGTCACCTAGTGCAG”, the binding signal was 30600 fluorescence intensity (a.u.). In the case of “CCAGCAATCAGATATCCTGAGATAGACAGAGACAGCACAGCGGAGTCACCTAGTGCAG”, the binding signal was 14200 fluorescence intensity (a.u.). For “AGAAATTGATTATGGATGAGTGCCCTTCTGCCTATTATGTCGGAGTCACCTAGTGCAG”, the binding signal was 55900 fluorescence intensity (a.u.). For “GATAAATTTATTGAGATTTAGTGTTATAAATTTTGCTAATCGGAGTCACCTAGTGCAG”, the binding signal was 17400 fluorescence intensity (a.u.). For “CTCTTCATTGATTAGTCCTATCCAGTCAGGAACAAAGCTCCGGAGTCACCTAGTGCAG”, the binding signal was 29900 fluorescence intensity (a.u.). With “ATATACTGGCAGTTTTAATTACTACTCATAGCCAGTACTGCGGAGTCACCTAGTGCAG” the binding signal was 3680 fluorescence intensity (a.u.). For “TACAATTCCCAATTTAAAATTAACATTAAAGTATTGCACACGGAGTCACCTAGTGCAG”, the binding signal was 6230 fluorescence intensity (a.u.). In the case of “TGAAACGAATAATAAATGAAGTCAAGAGAACCAATATGGCCGGAGTCACCTAGTGCAG”, the binding signal was 3750 fluorescence intensity (a.u.). “ATAATCTGTAATTTGTTCTTTTAAGTTCTATTTTCTTTTCCGGAGTCACCTAGTGCAG” was tested, and the binding signal was 4660 fluorescence intensity (a.u.). In the case of “CTATAAATTAAGAAGTACTAACATATAACACACAAACTCTCGGAGTCACCTAGTGCAG”, the binding signal was 8050 fluorescence intensity (a.u.). With “GCTACTAATCTGTTTGGATGATACAGATATTATCAATTGGCGGAGTCACCTAGTGCAG” the binding signal was 4510 fluorescence intensity (a.u.). For “AAAACACATCAATTGCAATTGCCTTTTACATGCCACTTTGCGGAGTCACCTAGTGCAG”, the binding signal was 3270 fluorescence intensity (a.u.).
